Reference: article PMC10668032
The other results are listed elsewhere or left out. At the low end of the ranking, values are background and their order means little.

Molecular target: SIX1 homeodomain (reference allele) (UniProt Q15475)
Experiment: universal protein binding microarray
Conditions: Universal all-10-mer PBM (8x60K, AMADID 030236), 300 nM GST-tagged protein, Alexa Fluor 488 anti-GST; buffer, salt, pH and temperature not stated; high values mean tight binding; most listed sequences are background and not binding sites; double strand, one strand shown

Sequence	binding signal
CATGTCTA	-0.0322 E-score
CCACGAAG	-0.148 E-score
CAACCTCG	-0.0547 E-score
CGCCCACC	-0.145 E-score
CAGCGAAG	-0.295 E-score
CAATGCAA	-0.0829 E-score
AGTTCTCA	0.0838 E-score
CGCAGCTA	-0.13 E-score
CGAGAGAC	0.0143 E-score
GTTGAGCA	-0.123 E-score
AGTACACT	-0.0294 E-score
GATGCATA	0.0989 E-score
CTTTTGGA	-0.159 E-score
ACTAACGA	0.0582 E-score
CGCGCCAC	-0.206 E-score
AACGCAGG	-0.186 E-score
ATACCCTC	0.441 E-score
CCCTATCG	0.357 E-score
CCCCAAAA	-0.0366 E-score
AGCTTACA	-0.042 E-score
ACCAACAT	-0.0135 E-score
AACGATTA	0.0243 E-score
CTCCTTTC	-0.00379 E-score
ATGATCCC	0.448 E-score
GGGCACCA	-0.171 E-score

Sequence	binding signal
TACAAGAA	-0.0314 E-score
GTATAAGA	0.224 E-score
GGCAGCAA	-0.335 E-score
CGAGCAAA	-0.256 E-score
CGGCAGCC	0.0495 E-score
AGCCCCAA	-0.0443 E-score
CCCGAAAA	0.0634 E-score
AGAGCAGG	-0.0175 E-score
GTAGTAAC	-0.0366 E-score
TATATCCA	0.335 E-score
ACGATCAG	0.197 E-score
ACACAAGG	-0.0763 E-score
GAACAATA	0.2 E-score
ATATGACG	0.227 E-score
CTACGCCA	-0.147 E-score
AAGATAGC	0.0922 E-score
CCCCATTA	0.00556 E-score
AGCTTTGA	-0.0794 E-score
CAGCTATA	0.172 E-score
GAATACAA	0.108 E-score
AACGAAAC	0.0183 E-score
GTGTCGAA	0.142 E-score
ATTTAACC	0.0553 E-score
GCTACGTA	0.144 E-score
ACCTACGC	-0.131 E-score

Sequence	binding signal
CATGGCGA	-0.0329 E-score
CCCATTCG	-0.167 E-score
AAGCACTG	-0.134 E-score
TAACCGCA	0.0847 E-score
GCGAGTAC	0.033 E-score
ACCTCCTG	-0.0308 E-score
GGGTGCTA	0.0697 E-score
TCAGATCA	0.243 E-score
TACCACAA	0.0676 E-score
GTATGGAA	-0.162 E-score
AATTCGCA	-0.168 E-score
GCGAAAGC	-0.19 E-score
AGACCGCA	-0.159 E-score
GTGTAGGA	0.129 E-score
CCAGTACG	-0.0984 E-score
GTCAGAAC	-0.243 E-score
GACATCCC	-0.0914 E-score
AGCGTTGA	-0.133 E-score
AGGTCAAC	-0.18 E-score
CGAACCTC	0.012 E-score
CGTCAGAG	-0.0786 E-score
CATCCAGA	0.13 E-score
GAATGTTA	-0.18 E-score
GTACGTTA	-0.203 E-score
ACGTAGAT	0.047 E-score

Sequence	binding signal
AAGTGCAA	-0.324 E-score
CATATACC	0.282 E-score
AAACTTGT	-0.294 E-score
ATGAGTTA	-0.151 E-score
GCGTCTAA	-0.0322 E-score
ATGTTAAC	-0.092 E-score
CGCAGATC	0.214 E-score
CTACGGAG	-0.133 E-score
ATTCACCA	-0.148 E-score
AGCGGCAG	-0.173 E-score
ATAGACCG	0.000455 E-score
GATCGTAA	0.216 E-score
ATGGAAGG	-0.28 E-score
ATGACTTA	-0.166 E-score
ATTCTACA	-0.0181 E-score
AGCAGGCT	0.0674 E-score
TGAACGAA	-0.271 E-score
AAGACGCT	-0.216 E-score
CTGTCGTA	-0.123 E-score
ACCCCATC	0.12 E-score
ACCTCCAA	-0.0084 E-score
GCGGAGCC	-0.198 E-score
AGGCCATA	0.0051 E-score
CACTAAGA	-0.00227 E-score
CACCGGAA	0.143 E-score

Sequence	binding signal
ATAGGTTC	0.167 E-score
AAAGATCG	0.0621 E-score
ATACAATA	0.356 E-score
GAGGTAGA	0.0912 E-score
GACACGCC	0.0739 E-score
GTAAAGGA	-0.178 E-score
ATAAGAAG	0.0394 E-score
GCGATCGA	0.199 E-score
CACGGTAC	-0.108 E-score
CACTGTGA	0.131 E-score
AGCTTAAG	-0.0998 E-score
AGGCCTAG	-0.0825 E-score
ATCCCGAG	0.257 E-score
ATACCACG	0.291 E-score
CCGTGGTC	-0.0708 E-score
AAGTAGTG	0.116 E-score
ACGGGAGC	-0.0868 E-score
ATGTTCGA	-0.0952 E-score
ACCAAAAG	-0.0789 E-score
ACATGTCG	-0.18 E-score
AATCCAGT	-0.0621 E-score
ACACTTTC	0.0154 E-score
AAAAAGCG	-0.164 E-score
GGGAGCCC	-0.253 E-score
AAGTGGCA	-0.199 E-score

Sequence	binding signal
GGGGCTAA	-0.0849 E-score
ACAAATAT	-0.0523 E-score
AGCATTCG	-0.16 E-score
ATCTCTAC	0.107 E-score
CTGGTCTC	-0.0355 E-score
ACATACAT	0.0714 E-score
CCGTAAAG	-0.0171 E-score
ACATCATA	0.0305 E-score
TCATCTAA	0.11 E-score
AATGTTTG	-0.186 E-score
GCCGTGCC	-0.0942 E-score
CATGCACA	-0.0972 E-score
CACGAATA	-0.0176 E-score
TCACGCGA	0.102 E-score
ATCAGGCC	0.114 E-score
GACTGACC	-0.208 E-score
AAGCGTCT	0.0223 E-score
AGCTATCA	0.313 E-score
CTAGAGTA	0.0823 E-score
CGCCTCTC	0.00732 E-score
AACGTGCA	-0.181 E-score
CGCGAATA	0.052 E-score
ACAATAGA	-0.0929 E-score
ATGCGGTA	0.265 E-score
AGAACCAA	-0.163 E-score

Sequence	binding signal
CGGTAGAA	-0.191 E-score
ACGTGATG	-0.0265 E-score
ACGCTCGC	-0.346 E-score
CGTTACTC	-0.189 E-score
AGCGTCCG	-0.217 E-score
CCGGCGTA	0.0553 E-score
CAAGTGTG	-0.138 E-score
ACAGTTAT	-0.023 E-score
GTGGTACA	-0.0736 E-score
GTCTGACA	-0.13 E-score
CTTTACGA	-0.154 E-score
AAAAGCCA	-0.158 E-score
GAGCTCCA	-0.0935 E-score
CAGGTACC	-0.198 E-score
AACATGTT	-0.188 E-score
CAGTGGAG	0.0211 E-score
CCCTTTAA	-0.0161 E-score
GCACACGA	0.0598 E-score
CCAGACAC	0.128 E-score
CCCCTCAA	-0.00329 E-score
GAAGTACC	-0.103 E-score
CGCCGCGA	0.0141 E-score
